According to US20220387586A1:

B1: PD1/LAG3 0927 (bispecific antibody, human IgG1, kappa)
heavy 1: DIVMTQSPDSLAVSLGERATINCKASESVDTSDNSFIHWYQQKPGQSPKLLIYRSSTLESGVPDRFSGSGSGTDFTLTISSLQAEDVAVYYCQQNYDVPWTFGQGTKVEIKSSASTKGPSVFPLAPSSKSTSGGTAALGCLVKDYFPEPVTVSWNSGALTSGVHTFPAVLQSSGLYSLSSVVTVPSSSLGTQTYICNVNHKPSNTKVDKKV[sequence of human IgG1 Fc with changes not given]
heavy 2: EVQLLESGGGLVQPGGSLRLSCAASGFIFDDYTMNWVRQAPGKGLEWVAVISWDGGGTYYTDSVKGRFTISRDDFKNTLYLQMNSLRAEDTAVYYCAKGLTDTTLYGSDYWGQGTLVTVSSASTKGPSVFPLAPSSKSTSGGTAALGCLVEDYFPEPVTVSWNSGALTSGVHTFPAVLQSSGLYSLSSVVTVPSSSLGTQTYICNVNHKPSNTKVDEKVEPKSCDKTHTCPPCPAPEAAGGPSVFLFPPKPKDTLMISRTPEVTCVVVDVSHEDPEVKFNWYVDGVEVHNAKTKPREEQYNSTYRVVSVLTVLHQDWLNGKEYKCKVSNKALGAPIEKTISKAKGQPREPQVCTLPPSRDELTKNQVSLSCAVKGFYPSDIAVEWESNGQPENNYKTTPPVLDSDGSFFLVSKLTVDKSRWQQGNVFSCSVMHEALHNHYTQKSLSLSPGK
light 1: EVQLLESGGGLVQPGGSLRLSCAASGFSFSSYTMSWVRQAPGKGLEWVATISGGGRDIYYPDSVKGRFTISRDNSKNTLYLQMNSLRAEDTAVYYCVLLTGRVYFALDSWGQGTLVTVSSASVAAPSVFIFPPSDEQLKSGTASVVCLLNNFYPREAKVQWKVDNALQSGNSQESVTEQDSKDSTYSLSSTLTLSKADYEKHKVYACEVTHQGLSSPVTKSFNRGEC
light 2: DIQMTQSPSSLSASVGDRVTITCRASQSISSYLNWYQQKPGKAPKLLIYAASTLQSGVPSRFSGSGSGTDFTLTISSLQPEDFATYYCQQTYSSPLTFGGGTKVEIKRTVAAPSVFIFPPSDRKLKSGTASVVCLLNNFYPREAKVQWKVDNALQSGNSQESVTEQDSKDSTYSLSSTLTLSKADYEKHKVYACEVTHQGLSSPVTKSFNRGEC
B2: PD1/LAG3 8970 (bispecific antibody, human IgG1, kappa)
heavy: EVQLLESGGGLVQPGGSLRLSCAASGFIFDDYTMNWVRQAPGKGLEWVAVISWDGGGTYYTDSVKGRFTISRDDFKNTLYLQMNSLRAEDTAVYYCAKGLTDTTLYGSDYWGQGTLVTVSSASTKGPSVFPLAPSSKSTSGGTAALGCLVEDYFPEPVTVSWNSGALTSGVHTFPAVLQSSGLYSLSSVVTVPSSSLGTQTYICNVNHKPSNTKVDEKV[sequence of human IgG1 Fc with changes not given]GGSGGGGSGGGGSGGGGSEVQLLESGGGLVQPGGSLRLSCAASGFSFSSYTMSWVRQAPGKGLEWVATISGGGRDIYYPDSVKGRFTISRDNSKNTLYLQMNSLRAEDTAVYYCVLLTGRVYFALDSWGQGTLVTVSSASVAAPSVFIFPPSDEQLKSGTASVVCLLNNFYPREAKVQWKVDNALQSGNSQESVTEQDSKDSTYSLSSTLTLSKADYEKHKVYACEVTHQGLSSPVTKSFNRGEC
light 1: DIVMTQSPDSLAVSLGERATINCKASESVDTSDNSFIHWYQQKPGQSPKLLIYRSSTLESGVPDRFSGSGSGTDFTLTISSLQAEDVAVYYCQQNYDVPWTFGQGTKVEIKSSASTKGPSVFPLAPSSKSTSGGTAALGCLVKDYFPEPVTVSWNSGALTSGVHTFPAVLQSSGLYSLSSVVTVPSSSLGTQTYICNVNHKPSNTKVDKKVEPKSC
light 2: B1 light 2
B3: PD1/LAG3 8310 (bispecific antibody, human IgG1, kappa)
heavy 1: EVQLLESGGGLVQPGGSLRLSCAASGFIFDDYTMNWVRQAPGKGLEWVAVISWDGGGTYYTDSVKGRFTISRDDFKNTLYLQMNSLRAEDTAVYYCAKGLTDTTLYGSDYWGQGTLVTVSSASTKGPSVFPLAPSSKSTSGGTAALGCLVEDYFPEPVTVSWNSGALTSGVHTFPAVLQSSGLYSLSSVVTVPSSSLGTQTYICNVNHKPSNTKVDEKV[sequence of human IgG1 Fc with changes not given]GGSGGGGSGGGGSGGGGSEVQLLESGGGLVQPGGSLRLSCAASGFSFSSYTMSWVRQAPGKGLEWVATISGGGRDIYYPDSVKGRFTISRDNSKNTLYLQMNSLRAEDTAVYYCVLLTGRVYFALDSWGQGTLVTVSSASVAAPSVFIFPPSDEQLKSGTASVVCLLNNFYPREAKVQWKVDNALQSGNSQESVTEQDSKDSTYSLSSTLTLSKADYEKHKVYACEVTHQGLSSPVTKSFNRGEC
heavy 2: B1 heavy 2
light 1: B2 light 1
light 2: B1 light 2

biological target: LAG3 on PD1+LAG3+ human U2OS cells (Homo sapiens (Human)), P18627; assay: cell-based or functional assay
Sequence (P18627 29-525 limits assumed, form in doubt): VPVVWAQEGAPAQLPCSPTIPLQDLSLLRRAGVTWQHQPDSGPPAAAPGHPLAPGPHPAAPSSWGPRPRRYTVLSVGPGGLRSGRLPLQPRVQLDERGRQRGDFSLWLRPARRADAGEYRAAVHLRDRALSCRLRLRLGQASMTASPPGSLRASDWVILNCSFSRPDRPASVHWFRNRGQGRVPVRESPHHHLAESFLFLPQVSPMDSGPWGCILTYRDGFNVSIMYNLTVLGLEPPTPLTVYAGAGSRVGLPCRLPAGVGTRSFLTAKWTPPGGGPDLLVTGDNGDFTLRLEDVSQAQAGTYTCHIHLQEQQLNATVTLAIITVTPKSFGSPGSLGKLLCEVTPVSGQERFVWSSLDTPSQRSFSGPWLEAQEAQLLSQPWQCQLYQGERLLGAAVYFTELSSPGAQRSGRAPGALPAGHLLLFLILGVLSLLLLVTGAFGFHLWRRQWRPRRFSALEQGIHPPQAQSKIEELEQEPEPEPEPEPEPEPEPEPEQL

EC50 [pM], dimerization binding assay (chemoluminescence) | Binder
41 pM | B1
83 pM | B2
114 pM | B3
